According to PubChem BioAssay AID686978 (National Center for Advancing Translational Sciences (NCATS), 2013):
The whole screen tested about 420,000 compounds, of which about 64,000 (15%) were called active. The shares of active, inactive and inconclusive entries below differ from those in the screen. Calls follow the shape of the dose curve; as a rule, active = well fitted inhibition curve with a large enough effect; inconclusive = small, poorly fitted or top-dose-only effect; inactive = flat fitted curve, though single readings scatter. Potencies of inconclusive entries are left out as doubtful fits.

Test: qHTS for Inhibitors of human tyrosyl-DNA phosphodiesterase 1 (TDP1): qHTS in cells in absence of CPT; also: nearly all actives have a fitted effect of over 55% in size
Details: DT40 Tdp1-/- hTDP1 cells, no CPT, ATP luminescence, 48 h; activity change, negative = growth inhibition: at 46.2 µM (top of the series) unless noted
Summary of the method: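 Luminescent ATP content (CellTiter-Glo) served as the growth readout. Knockout chicken DT40 cells expressing human TDP1 were exposed to compounds without camptothecin for a minimum 48 hr at 37 °C.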
% is scaled to controls: 0 for no effect and ±100 for the full control effect; potency is read from the fitted curve at half-maximal effect; tags tell the direction and shape of the fitted curve.

For `COc1ccc(-c2csc(C(C)(O)c3ccc(OC)cc3)n2)cc1` (stereo not drawn), which Potency is on record?
The Potency was inconclusive [inhibitor, single point].

With `Cc1ccc([N+](=O)[O-])c(OCCCN2CCCCCC2)c1` as the molecule, how does the Potency read?
Its Potency is inconclusive [inhibitor, single point].

With `CC(CCCC(C)(C)O)NC(=O)c1ccc2oc(CCc3ccccc3)nc2c1` (stereo not drawn) as the molecule, how does the Potency read?
Its Potency is inconclusive [inhibitor, single point].

Which Potency does the source give for `COc1cc2c(cc1OC)C(COc1ccc3c(C)cc(=O)oc3c1)N(C(=O)c1ccc(Cl)cc1)CC2` (stereo not drawn) here?
Its Potency is inconclusive [inhibitor, partial curve].

With `O=C(CC1CCCC1)NNC(=O)c1ccccc1O` as the molecule, how does the Potency read?
Its Potency is inconclusive [inhibitor, single point].

With `O=Cc1cn(-c2ccccc2)nc1-c1cccc([N+](=O)[O-])c1` as the molecule, how does the Potency read?
Its Potency is inconclusive [inhibitor, single point].

Which Potency does the source give for `O=C1CN(C(=O)c2ccccc2C(F)(F)F)C(c2ccccc2)c2cc(F)ccc2N1` (stereo not drawn) here?
Its Potency is inconclusive [inhibitor, single point].

With `O=C(C[n+]1cccc2ccccc21)c1ccc(Br)cc1` as the molecule, how does the Potency read?
The Potency was inconclusive [inhibitor, full curve, poor fit].

Which activity change, negative = growth inhibition does the source give for `CCCNc1c(NC(=O)c2ccc(OCCC)cc2)c(=O)oc2ccccc12` here?
Its activity change, negative = growth inhibition is inconclusive: -28% [inhibitor].

Which “activity change, negative = growth inhibition” value does the source give for `O=C(O)c1cc(-c2ccc(/C=N/Nc3ccc(Cl)cc3)o2)ccc1Cl` here?
The value was inactive: -7.12%.

With `c1ccc2c(C3OCC4(CCCC4)CO3)cccc2c1` as the molecule, how does the Potency read?
The Potency was inconclusive [inhibitor, full curve, poor fit].

With `OC(COc1ccc(Cl)cc1)CSc1ccccn1` (stereo not drawn) as the molecule, how does the Potency read?
The Potency was inconclusive [inhibitor, single point].

With `O=C(CSc1nc(-c2ccco2)cc(C(F)(F)F)n1)N1CCN(c2cccc(Cl)c2)CC1` as the molecule, how does the Potency read?
The Potency was active: 23.1 µM.

Which Potency does the source give for `Cc1ccc2c(C)c(C(=O)N(Cc3ccc(Cl)cc3)C3CCS(=O)(=O)C3)oc2c1` (stereo not drawn) here?
Its Potency is inconclusive [inhibitor, single point].

Which Potency does the source give for `CCOC(=O)c1c(NC(=O)COC(=O)CCNS(=O)(=O)c2ccccc2)sc(C(=O)NC)c1C` here?
Its Potency is inconclusive [inhibitor, single point].

For `Cc1ccc2nc(-c3cccc(Br)c3)c(Cc3ccccc3C(F)(F)F)n2c1`, which Potency is on record?
Its Potency is inconclusive [inhibitor, single point].

Which Potency does the source give for `COc1cc(/C=C2/NC(=O)N(CC(=O)Nc3cccc(C)c3)C2=O)ccc1OCC(N)=O` here?
The Potency was inconclusive [inhibitor, single point].

For `CCOc1ccc(NC(=O)CSc2nccn2Cc2ccco2)cc1`, which Potency is on record?
Its Potency is inconclusive [inhibitor, single point].

With `C=C1NN(CC#N)C(=O)N1c1ccc(OCc2ccccc2)cc1` as the molecule, how does the Potency read?
The Potency was inconclusive [inhibitor, single point].

For `Cc1ccc(S(=O)(=O)N2CCCc3ccccc32)cc1`, which Potency is on record?
The Potency was inconclusive [inhibitor, full curve, poor fit].

With `O/C(=C\c1ccc2ccccc2n1)c1ccncc1` as the molecule, how does the Potency read?
Its Potency is inconclusive [inhibitor, single point].

For `COc1ccc(C2CC(C(F)(F)F)n3nc(C(=O)Nc4ccc5c(c4)OCO5)cc3N2)cc1` (stereo not drawn), which Potency is on record?
Its Potency is inconclusive [inhibitor, single point].

With `CC1(C(=O)NCCc2c[nH]c3ccccc23)CCN1CC1CCCCC1` (stereo not drawn) as the molecule, how does the Potency read?
Its Potency is inconclusive [inhibitor, single point].

With `CC1=NN(C(=O)COc2ccccc2)C(O)(c2ccccc2)C1` (stereo not drawn) as the molecule, how does the Potency read?
The Potency was inconclusive [inhibitor, single point].

With `Cc1onc(-c2ccccc2)c1C(=O)OCC(=O)N1CCN(c2ccccc2)CC1` as the molecule, how does the Potency read?
Its Potency is inconclusive [inhibitor, partial curve].

With `O=C(N/N=C/c1ccccc1)c1ccc(N2CCOCC2)c([N+](=O)[O-])c1` as the molecule, how does the “activity change, negative = growth inhibition” value read?
The value was inactive: -1.02%.

Which “activity change, negative = growth inhibition” value does the source give for `Cc1nc2nc(-c3ccco3)[nH]n2c(=O)c1C` here?
Its value is inactive: -15.5%.

Which Potency does the source give for `CCn1cc(Br)c(C(=O)Nc2ccc(Cl)cc2Cl)n1` here?
The Potency was inconclusive [inhibitor, single point].

With `COc1ccc(NC(=O)CN2CCN(S(=O)(=O)c3cccs3)CC2)cc1Cl` as the molecule, how does the Potency read?
The Potency was inconclusive [inhibitor, single point].

Which Potency does the source give for `CS(=O)(=O)N1CCN(C(=O)c2cc(-c3cccnc3)nc3ccc(Br)cc23)CC1` here?
The Potency was active: 9.2 µM.

With `S=c1nc(NCCc2ccccc2Cl)c2ccccc2[nH]1` as the molecule, how does the Potency read?
Its Potency is active: 25.9 µM.

For `Cc1nn(-c2ccccc2)nc1C(=O)NNC(=O)c1cccc2ccccc12`, which Potency is on record?
Its Potency is inconclusive [inhibitor, single point].

For `O=C(NNc1c(Cl)cc(Cl)cc1Cl)c1cccc([N+](=O)[O-])c1`, which Potency is on record?
The Potency was inconclusive [inhibitor, single point].

Which Potency does the source give for `Cc1c(Cl)c([N+](=O)[O-])nn1CCCC(=O)Nc1ccc(Cl)cc1Cl` here?
The Potency was inconclusive [inhibitor, single point].

With `O=C(c1ccc(Cn2cc(Cl)cn2)cc1)N1CCN(c2ccccc2)CC1` as the molecule, how does the Potency read?
The Potency was inconclusive [inhibitor, single point].

With `CCCCCNC(=O)c1cc(S(=O)(=O)N2CCCC2)ccc1F` as the molecule, how does the “activity change, negative = growth inhibition” value read?
Its value is inactive: -39.2%.

For `O=C(O)COc1ccccc1C1C2C(=O)N(c3ccccc3)C(=O)C2ON1c1ccccc1` (stereo not drawn), which Potency is on record?
The Potency was inconclusive [inhibitor, single point].

Which Potency does the source give for `O=C(NCc1ccco1)c1cccc(-c2nnc(-c3ccccc3)o2)c1` here?
The Potency was inconclusive [inhibitor, single point].

With `Cc1cccc(CS(=O)(=O)Cc2ccc(C(=O)NC3CCCCC3)o2)c1` as the molecule, how does the “activity change, negative = growth inhibition” value read?
The value was inactive: -14.4%.

For `Fc1cccc(Cl)c1-c1nnc2ccc3ccccc3n12`, which Potency is on record?
The Potency was active: 10.3 µM.

With `CCOCCCN1C(=O)CN(C2CCCCCC2)C(=O)C1c1ccc(OC(C)C)c(OC)c1` (stereo not drawn) as the molecule, how does the “activity change, negative = growth inhibition” value read?
Its value is inactive: -22.4%.

For `COCCNC(=O)c1ccc(N2CC3CC(C2)c2cccc(=O)n2C3)c(NC(=O)c2ccccc2Br)c1` (stereo not drawn), which “activity change, negative = growth inhibition” value is on record?
Its value is inactive: -8.31%.

With `CCOC(=O)N1CCC(N2C(=O)c3ccccc3C2Nc2cc(Cl)c(OC)cc2OC)CC1` (stereo not drawn) as the molecule, how does the Potency read?
Its Potency is inconclusive [inhibitor, single point].

For `CN(C)S(=O)(=O)c1cccc(NC(=O)c2cc(-c3cccs3)nn2-c2cccc(Cl)c2)c1`, which Potency is on record?
The Potency was inconclusive [inhibitor, single point].

For `Cn1c(=O)c2c([nH]c(OCc3ccc(Cl)cc3Cl)[n+]2Cc2ccc(F)cc2)n(C)c1=O`, which Potency is on record?
The Potency was inconclusive [inhibitor, partial curve, poor fit].

Which Potency does the source give for `NC(=O)c1ccc(C(F)(F)F)n(Cc2ccc(Cl)cc2)c1=O` here?
The Potency was inconclusive [inhibitor, partial curve].

Which Potency does the source give for `O=C(Nc1cccc([N+](=O)[O-])c1)c1cc(S(=O)(=O)Nc2ccccn2)ccc1Cl` here?
Its Potency is inconclusive [inhibitor, single point].

Which Potency does the source give for `COc1ccccc1CNC(=O)c1oc2ccc(S(=O)(=O)N3CCCCC3)cc2c1C` here?
The Potency was active: 7.31 µM.

For `COc1ccc(NC(=O)c2cc3nc(-c4ccc(C)c(C)c4)cc(C(F)(F)F)n3n2)cc1`, which Potency is on record?
The Potency was inconclusive [inhibitor, partial curve].

Which Potency does the source give for `CCOc1ncccc1C(=O)Oc1ccc2c(c1)OCO2` here?
The Potency was inconclusive [inhibitor, single point].

Which Potency does the source give for `CCn1c(C)cc(O)c(C(=O)Nc2cccc(Cl)c2)c1=O` here?
Its Potency is active: 3.66 µM.

Which Potency does the source give for `C=C1CCN([C@@H](C)C(=O)NCCCCCC)S(=O)(=O)c2ccccc21` here?
Its Potency is inconclusive [inhibitor, single point].

With `O=C(CCl)c1cc2c3c(c1)CC(=O)N3CCC2` as the molecule, how does the Potency read?
The Potency was active: 0.326 µM.

With `Cc1n[nH]c(=S)n1-c1ccccc1` as the molecule, how does the “activity change, negative = growth inhibition” value read?
The value was inactive: -14.2%.

For `COc1cc(/C=N/Nc2cccc(C)c2)ccc1OC(=O)c1cccs1`, which “activity change, negative = growth inhibition” value is on record?
The value was inactive: -33.4%.

Which “activity change, negative = growth inhibition” value does the source give for `CCOC(=O)C1CCN(C(=O)COC(=O)c2oc3ccccc3c2C)CC1` here?
The value was inactive: -26.5%.

For `CCc1cc(C(=O)Nc2cc(S(=O)(=O)N3CCCCC3)ccc2N2CCN(C)CC2)sc1C`, which Potency is on record?
The Potency was active: 4.11 µM.

For `CC1(C(=O)Nc2ccc3c(c2)OCO3)CCN1C(=O)Cc1cccs1` (stereo not drawn), which Potency is on record?
Its Potency is inconclusive [inhibitor, single point].

With `C=CCCO[C@@H]1O[C@@H](C)[C@H](O)C[C@H]1O` as the molecule, how does the “activity change, negative = growth inhibition” value read?
Its value is inactive: -0.894%.

With `COC(=O)[C@H]1C[C@@]2(O)CN(S(=O)(=O)c3ccc(C)cc3)C[C@@]2(OC(=O)NCc2ccc(OC)c(OC)c2)C[C@H]1C(=O)OC` as the molecule, how does the Potency read?
The Potency was inconclusive [inhibitor, single point].

Which Potency does the source give for `Cc1ccc(CSc2ncc(Cl)c(C(=O)NCCc3ccc(S(N)(=O)=O)cc3)n2)cc1` here?
Its Potency is inconclusive [inhibitor, single point].

For `CCc1ccc(C2NC(=S)NC3=C2C(=O)CCC3)cc1` (stereo not drawn), which “activity change, negative = growth inhibition” value is on record?
Its value is inactive: -18.6%.

For `CC1=CN2C(=N)/C(=C/c3ccc(Sc4ccc(Cl)cc4)o3)C(=O)N=C2S1`, which “activity change, negative = growth inhibition” value is on record?
Its value is inactive: -19%.

For `O=C(CSc1nnc(CNc2ccc(Cl)cc2)o1)Nc1nc2c(s1)CCCC2`, which Potency is on record?
Its Potency is inconclusive [inhibitor, single point].

Which “activity change, negative = growth inhibition” value does the source give for `Cc1cc(CN2CCCC(CO)(Cc3cccc(Cl)c3)C2)n[nH]1` (stereo not drawn) here?
The value was inactive: -25.2%.

With `S=c1[nH]nc(C2CCCCC2)n1/N=C/C(Cl)=C\c1ccccc1` as the molecule, how does the Potency read?
The Potency was inconclusive [inhibitor, single point].

With `O=S(=O)(c1cnc(Cl)c(Cl)c1)N1CCN(c2ncccn2)CC1` as the molecule, how does the “activity change, negative = growth inhibition” value read?
The value was inactive: 3.18%.

Which Potency does the source give for `Cc1cc(C(=O)NC2CCCN(Cc3ccc(Cl)cc3)C2)n(C)n1` (stereo not drawn) here?
Its Potency is inconclusive [inhibitor, single point].
